Assay [1] concerns the target T1, Fisp12 (mouse, UniProt P29268 26-348).
T1 construct: Recombinant, baculovirus/Sf9, purified from serum-free conditioned medium; also called Fisp12/mCTGF; mCTGF
T1 sequence: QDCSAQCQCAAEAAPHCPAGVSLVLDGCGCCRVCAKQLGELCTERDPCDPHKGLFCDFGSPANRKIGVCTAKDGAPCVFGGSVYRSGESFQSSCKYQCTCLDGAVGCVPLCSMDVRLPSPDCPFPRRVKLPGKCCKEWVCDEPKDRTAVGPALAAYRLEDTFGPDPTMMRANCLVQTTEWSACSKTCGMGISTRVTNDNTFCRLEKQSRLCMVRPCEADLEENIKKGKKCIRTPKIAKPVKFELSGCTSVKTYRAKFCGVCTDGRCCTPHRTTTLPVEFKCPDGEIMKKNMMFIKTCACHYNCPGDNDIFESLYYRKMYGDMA
The assay is described as follows: solid-phase binding isotherm, varying concentrations of RGD-affinity purified αIIbβ3 on immobilized Fisp12/mCTGF; printed as half-saturation.

For assay [2], the target named is Cyr61 (recombinant, species not stated in the example). Nature of the assay: solid-phase binding isotherm, varying concentrations of RGD-affinity purified αIIbβ3 on immobilized Cyr61; printed as half-saturation.

B1: activated αIIbβ3 purified from human platelets (receptor)
chain 1: not shown
chain 2: GPNICTTRGVSSCQQCLAVSPMCAWCSDEALPLGSPRCDLKENLLKDNCAPESIEFPVSEARVLEDRPLSDKGSGDSSQVTQVSPQRIALRLRPDDSKNFSIQVRQVEDYPVDIYYLMDLSYSMKDDLWSIQNLGTKLATQMRKLTSNLRIGFGAFVDKPVSPYMYISPPEALENPCYDMKTTCLPMFGYKHVLTLTDQVTRFNEEVKKQSVSRNRDAPEGGFDAIMQATVCDEKIGWRNDASHLLVFTTDAKTHIALDGRLAGIVQPNDGQCHVGSDNHYSASTTMDYPSLGLMTEKLSQKNINLIFAVTENVVNLYQNYSELIPGTTVGVLSMDSSNVLQLIVDAYGKIRSKVELEVRDLPEELSLSFNATCLNNEVIPGLKSCMGLKIGDTVSFSIEAKVRGCPQEKEKSFTIKPVGFKDSLIVQVTFDCDCACQAQAEPNSHRCNNGNGTFECGVCRCGPGWLGSQCECSEEDYRPSQQDECSPREGQPVCSQRGECLCGQCVCHSSDFGKITGKYCECDDFSCVRYKGEMCSGHGQCSCGDCLCDSDWTGYYCNCTTRTDTCMSSNGLLCSGRGKCECGSCVCIQPGSYGDTCEKCPTCPDACTFKKECVECKKFDRGALHDENTCNRYCRDEIESVKELKDTGKDAVNCTYKNEDDCVVRFQYYEDSSGKSILYVVEEPECPKGPDILVVLLSVMGAILLIGLAALLIWKLLITIHDRKEFAKFEEERARAKWDTANNPLYKEATSTFTNITYRGT
notes: mature; also called α11bβ3
B1: the concentration for a half-maximal effect (EC50) in assay [1] came to 15 nM; in assay [2] it was 25 nM.

For the origin of these results see patent publication EP1892250A2 (Munin Corporation, dated 2008).
